Measurements reported in PubChem BioAssay AID686970 (National Center for Advancing Translational Sciences (NCATS), 2013).
Screen size: about 360,000 compounds; about 6,000 (1.7%) were called active. Calls follow the shape of the dose curve; as a rule, active = well fitted cell-killing curve with a large enough effect; inconclusive = small, poorly fitted or top-dose-only effect, or effect the other way; inactive = flat fitted curve, though single readings scatter. The inconclusive results got no clear call from the source. No potency is given beside an inconclusive call; the fits are too rough.

Experiment: qHTS for induction of synthetic lethality in tumor cells producing 2HG: qHTS for the HT-1080-NT fibrosarcoma cell line; also: nearly all actives have a fitted effect of over 55% in size
Conditions: HT-1080-NT fibrosarcoma viability, CellTiter-Glo ATP luminescence, 48 h; series mostly up to 46.1 µM
Source text: Unbiased genomic sequencing for 22 glioma genomes found recurrent mutation of IDH1 on chromosome 2q33, a gene encoding the cytosolic isoform of IDH1 associated with the tricarboxylic acid cycle (TCA) that catalyzes the oxidative decarboxylation of isocitrate, yielding alpha-ketoglutarate and CO2 via NADP+ to NADPH conversion. Subsequent studies confirmed the recurrent IDH mutations in up to 70% of secondary gliomas and in 10% of AML cases. In addition, the somatic mutation of cancer-associated IDH1 is a point mutation resulting in various amino-acid substituents at Arginine132 (IDH1 R132), a key residue found in the enzyme's active site that when mutated, results in the loss-of-function in metabolizing isocitrate but confers a gain-of-function to produce the oncometabolite 2-hydroxyglutarate (2HG). This in effect defines IDH1 as an oncogene and provides an extraordinary opportunity to discover chemical probes against mutant IDH1 that may translate into much needed new therapies for glioma and AML patients.
This assay aims to perform a synthetic lethal screen for chemical probes specific for 2HG-producing tumor cells using matched paired cell lines (1) HT-1080-NT fibrosarcoma cell line that overproduces 2HG and (2) HT-1080-IDH1KD cell line which has IDH1 expression knocked-down. Desirable compounds are toxic to the NT fibrosarcoma cells but not to the IDH1KD cell line. The data in this AID corresponds to the results of the qHTS against the HT-1080-NT fibrosarcoma cell line.
[1] Dang L, Jin S, Su SM. IDH mutations in glioma and acute myeloid leukemia. Trends of Mol Med. 2010; 16(9): 387-97.
[2] Dang L et al. Cancer-associated IDH1 mutations produce 2-hydroxyglutarate. Nature. 2010; 465(7300):966.
NIH Molecular Libraries Probe Production Centers Network [MLPCN]
NIH Chemical Genomics Center [NCGC]
Assay Submitter (PI): Lenny Dang Ph.D., Agios Pharmaceuticals
Suspensions of trypsinized HT-1080-NT cells were dispensed into white, tissue culture-treated, solid 1536-well plates at 5uL/well (750 cells/well final concentration) in RPMI medium supplemented with 5% FBS. Plates were incubated at 37 degrees C for 2 hours, after which 23 nL of compounds or DMSO were delivered to each well using a pin tool. Plates were then incubated at 37 degrees C for an additional 48 hours. […] The plates were measured on a PerkinElmer ViewLux plate reader for luminescent signal (clear filter, 1 sec exp). […]
Concentration-response curves were fitted to the signals arising from the resulting luminescence. The concentration-effect curves were then classified based on curve quality (r2), response magnitude and degree of measured activity, and compounds were subsequently categorized based on their curve class.
Potency is read from the fitted curve at half-maximal effect; tags tell the direction and shape of the fitted curve.

Compound | Potency
COc1cccc(C2C3=C(N=c4s/c(=C\c5ccc(OCC(=O)O)cc5)c(=O)n42)c2ccccc2CC3)c1 (centres undefined) | inconclusive [cytotoxic, single point]
O=C1NN(c2ccc(F)c(Cl)c2)C(=O)/C1=C\c1cccc(OC(=O)c2cccs2)c1 | inconclusive [cytotoxic, single point]
Cc1ccccc1N/N=C/c1sc(=O)n(Cc2cccc(C(=O)O)c2)c1Cl | inconclusive [cytotoxic, single point]
Cc1cc(N2C(=O)C(O)=C(C(=O)c3cc4ccccc4o3)C2c2cccc(Br)c2)no1 (centres undefined) | inconclusive [cytotoxic, single point]
